Hit rate of the full screen: of about 370,000 compounds, about 150 (0.041%) were called active. Inconclusive means that the source gave no clear call. Such entries were picked first, then a sample of the others. Calls come from the whole dose curve; as a rule, active = well fitted inhibition curve with a large enough effect; inconclusive = small, poorly fitted or top-dose-only effect; inactive = flat fitted curve, though single readings scatter. No potency is given beside an inconclusive call; the fits are too rough.
molecular target: Beta-lactamase (Escherichia coli (strain K12)) (UniProt P00811); test: qHTS Inhibitors of AmpC Beta-Lactamase (assay with detergent); details: AmpC hydrolysis of nitrocefin, absorbance 480 nm, 0.01% Triton; series mostly up to 114 µM; note: nearly all actives have a fitted effect of over 25% in size
In short: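 20 mM phosphate pH 7.0 + 0.01% (detergent screen) or 0.0001% Triton X-100; 5.3 nM AmpC reagent; cpd preinc 15 min RT; nitrocefin (800 uM stock) to start; A480 q20 s × 4 min; Activity was normalised to no-enzyme and no-compound control wells.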
Potency is the fitted concentration of half-maximal effect; tags give direction and shape of the fitted curve.

UniProt P00811, sequence (P00811 whole entry, looked up): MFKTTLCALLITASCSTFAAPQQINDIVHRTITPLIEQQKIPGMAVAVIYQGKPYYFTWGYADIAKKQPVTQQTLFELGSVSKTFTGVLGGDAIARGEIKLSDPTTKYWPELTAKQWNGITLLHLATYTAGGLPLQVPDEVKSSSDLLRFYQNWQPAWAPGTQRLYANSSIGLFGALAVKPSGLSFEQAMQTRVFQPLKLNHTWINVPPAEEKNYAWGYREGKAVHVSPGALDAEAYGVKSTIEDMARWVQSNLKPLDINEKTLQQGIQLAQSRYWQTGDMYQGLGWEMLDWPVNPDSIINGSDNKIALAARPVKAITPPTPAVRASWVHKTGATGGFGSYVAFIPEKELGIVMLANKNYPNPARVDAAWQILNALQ

| Structure (SMILES) | Potency |
| --- | --- |
| O=c1c2ccccc2[nH]c(=S)n1CCN1CCCCC1 | inactive |
| Cc1ccc(N2C(=O)c3ccc(C(=O)N4CCN(c5cccc(C)c5C)CC4)cc3C2=O)cc1 | inconclusive [inhibitor, partial curve, poor fit] |
| COc1cc(S(=O)(=O)N(Cc2cccc(OC)c2OC)CC2CCCO2)ccc1-n1cnnn1 (centres undefined) | inactive |
| COc1cc(C(=O)N2CCCc3ccccc32)cc(OC)c1OC | inconclusive [inhibitor, partial curve, poor fit] |
| COc1ccc(NC(=O)CC2C(=O)N(c3cccc(OC)c3)C(=O)N2Cc2ccc3c(c2)OCO3)cc1 (centres undefined) | inactive |
| CCOc1ccc(N2C(=O)c3cccnc3C2Nc2ccc(F)cc2)cc1 (centres undefined) | inconclusive [inhibitor, single point] |
| COc1ccccc1NC(=S)c1ccccc1 | inconclusive [inhibitor, full curve, poor fit] |
| COCCn1c(SC)nnc1-c1c[nH]c2ccccc12 | inactive |
| COCCCNC(=O)COc1cc(C)c(Cl)c(C)c1 | inconclusive [inhibitor, partial curve, poor fit] |
| OCc1cn(-c2ccccc2)nc1-c1cccnc1 | inconclusive [inhibitor, partial curve] |
| CCS(=O)(=O)N1CCC(C(=O)NCc2ccc(F)cc2)CC1 | inconclusive [inhibitor, full curve, poor fit] |
| CSc1nc(Oc2ccc(C)cc2)cc(C(F)(F)F)n1 | inactive |
| O=c1c2sc3ccccc3c2n(Cc2cccc(C(F)(F)F)c2)c(=O)n1Cc1ccc(F)cc1 | inactive |
| O=c1oc2ccccc2cc1-c1cn2cc(Cc3ccc(Br)cc3)sc2n1 | inactive |
| COc1ccc(/C=N/Nc2nc(N3CCCCC3)nc(N3CCCCC3)n2)cc1[N+](=O)[O-] | inactive |
| CN1c2ccccc2C(C)(C)C12CC(c1cccc(S(=O)(=O)N3CCCC3)c1)=NO2 (centres undefined) | inconclusive [inhibitor, full curve, poor fit] |
| Cc1ccc(-c2noc(CSc3nnc(-c4cccs4)n3C)n2)cc1 | inconclusive [inhibitor, full curve, poor fit] |
| O=C(NCCCN1CCCC1=O)c1nnc(Cc2c(F)cccc2Cl)o1 | inconclusive [inhibitor, single point] |
| COc1ccc2c(COC(=O)CCS(=O)(=O)c3ccccc3)cc(=O)oc2c1 | inconclusive [inhibitor, full curve, poor fit] |
| Cc1cc(C)cc(-n2ccn(Cc3ccc(F)cc3)c(=O)c2=O)c1 | inactive |
| CC(C)C(C(=O)O)N1C(=O)/C(=C/C=C/c2ccco2)SC1=S (centres undefined) | inconclusive [inhibitor, partial curve] |
| COc1ccc(-c2oc3cccnc3c2C#CCO)cc1 | inconclusive [inhibitor, full curve, poor fit] |
| O=C(Nc1nc2ccccc2s1)c1ccc([N+](=O)[O-])o1 | inactive |

| Structure (SMILES) | Potency |
| --- | --- |
| O=C(CSCc1ccc(F)cc1)Nc1nc2c(s1)CCCC2 | inconclusive [inhibitor, partial curve] |
| CC1Cn2c(nc3sc4c(c3c2=O)CC(C)(C)OC4)N1CCO (centres undefined) | inconclusive [inhibitor, partial curve, poor fit] |
| COc1ccc(Nc2oc(/C=C/c3ccc(OC)c(OC)c3)nc2C#N)cc1 | inactive |
| COc1ccc2[nH]c(=O)c(CN(C(=O)COc3ccccc3)C(C)C)cc2c1 | inconclusive [inhibitor, full curve, poor fit] |
| COc1ccc(C(=O)NCCc2c[nH]c3ccccc23)cc1OC | inconclusive [inhibitor, partial curve] |
| COc1ccc(Cl)cc1NC(=O)CN1C(=O)CCS(=O)(=O)c2ccccc21 | inconclusive [inhibitor, full curve] |
| Cc1ccc(CN2CCCn3nc(C(=O)NCC(C)c4ccccc4)cc3C2=O)cc1 (centres undefined) | inactive |
| Cc1cc(C)n(Cc2ccc(C(=O)N/N=C/c3ccc(-c4ccc([N+](=O)[O-])cc4)o3)o2)n1 | inconclusive [inhibitor, full curve, poor fit] |
| CC(C)n1cc(CN2CCCC(C(=O)Nc3ccccc3Oc3cccnc3)C2)cn1 (centres undefined) | inconclusive [inhibitor, full curve] |
| COc1ccc(CCNc2oc(-c3ccccc3OC)nc2C#N)cc1 | inconclusive [inhibitor, full curve, poor fit] |
| CCOc1ccc2nc(N3CCCC(C(=O)NCc4ccccc4OC)C3)sc2c1 (centres undefined) | inactive |
| Cc1ccc(Cl)cc1NC(=O)C1CCN(c2nc3ccccc3n3cccc23)CC1 | inactive |
| Cc1ccc(Cl)cc1N1CCN(C(=O)c2ccc(CS(=O)Cc3ccc(Cl)cc3)o2)CC1 (centres undefined) | inactive |
| NC(=S)N=Nc1ccc(NN=C(N)N)cc1 | inconclusive [inhibitor, full curve, poor fit] |
| CCOC(=O)c1ccc(NC(=O)c2nc(SCc3ccccc3F)ncc2Cl)cc1 | inactive |
| COc1cc(C2C(C(=O)Nc3ccccc3)=C(C)Nc3nnnn32)cc(OC)c1OC (centres undefined) | inactive |
| CN1CCN(c2csc3ccc(F)cc3c2=O)CC1 | inactive |
| CC(=O)Nc1ccc(S(=O)(=O)c2ccc(N)cc2)cc1N | inconclusive [inhibitor, full curve, poor fit] |
| CCCN(CC(=O)Nc1ccccc1C)C(=O)CSc1ccccc1C | inconclusive [inhibitor, single point] |
| COc1ccccc1NC(=O)CSc1nc(N)c(C#N)cc1C#N | inconclusive [inhibitor, single point] |
| CCn1c(CNC(=O)Cc2ccc(OC)cc2)nnc1SCCOc1ccccc1 | inconclusive [inhibitor, partial curve, poor fit] |
| Cc1cccc(/C=C/c2onc(C)c2S(=O)(=O)N2CCC(C(=O)NC(C)(C)C)CC2)c1 | inconclusive [inhibitor, single point] |
| CCOc1ccc(OCC)c(NC(=O)CSc2nnc(Cn3cnc4ccccc43)n2C)c1 | inconclusive [inhibitor, single point] |

| Structure (SMILES) | Potency |
| --- | --- |
| O=C(NCCc1ccc(Cl)cc1)c1ccc2c(c1)OCCO2 | inactive |
| COc1nc(Oc2ccc(=O)[nH]n2)nc(N2CCOCC2)n1 | inconclusive [inhibitor, full curve] |
| CC(=O)NCCOc1cccc2ccccc12 | inconclusive [inhibitor, single point] |
| CCOc1ccc(NC(=O)C2CCCN2S(=O)(=O)c2ccc3c(c2)C(C)(C)C(=O)N3C)cc1 (centres undefined) | inconclusive [inhibitor, partial curve] |
| COc1ccccc1C(=O)Nc1ccnn1C1CCN(C/C=C/c2ccc(F)cc2)CC1 | inactive |
| CCC(C)c1ccccc1N1CC(C(=O)NCCc2ccc(OC)c(OC)c2)CC1=O (centres undefined) | inconclusive [inhibitor, partial curve] |
| CCCc1nc2ccccc2c(C(=O)OCC(=O)Nc2cccc(S(=O)(=O)N3CCOCC3)c2)c1CC | inconclusive [inhibitor, partial curve] |
| COc1ccc2c(C)c(CC(=O)N3C[C@H]4C[C@@H](C3)c3cccc(=O)n3C4)c(=O)oc2c1 | inconclusive [inhibitor, partial curve] |
| Cc1ccc(S(=O)(=O)c2ccc(Cl)cc2)cc1S(=O)(=O)NC(C)C(=O)O (centres undefined) | inconclusive [inhibitor, partial curve, poor fit] |
| CCOc1ccc(N2C(=O)CC(C(C)c3ccccc3)C2=O)cc1 (centres undefined) | inconclusive [inhibitor, full curve, poor fit] |
| O=C1CC(N2CCN(CCc3ccccn3)CC2)C(=O)N1c1ccc(Cl)cc1 (centres undefined) | inactive |
| CCCOC(=O)Nc1cc(OC)c(Cl)cc1OC | inconclusive [inhibitor, full curve] |
| N#Cc1cn(-c2ccccc2)nc1-c1ccccc1 | inactive |
| Cc1ccc(Sc2c(C)nn(C(=O)CNS(=O)(=O)c3ccc(F)cc3)c2C)cc1 | inconclusive [inhibitor, full curve] |
| O=C(NCc1n[nH]c(=S)n1-c1ccccc1)c1cccs1 | inconclusive [inhibitor, full curve, poor fit] |
| COC(=O)c1cc(NC(=O)c2cccc(C(F)(F)F)c2)c(=O)oc1C/C=N/OCc1cccc(Cl)c1Cl | inactive |
| CCc1cc2c(cc3c(=O)n(CC(=O)NCCc4ccccc4)ncn32)s1 | inactive |
| COc1ccc(NC(=O)C2CCCN(S(=O)(=O)c3c(C)[nH]c(=O)[nH]c3=O)C2)cc1Cl (centres undefined) | inconclusive [inhibitor, partial curve, poor fit] |
| CCN(CC)S(=O)(=O)c1ccc(S(=O)(=O)NCc2cccs2)cc1 | inactive |
| O=C(NCCC1=CCCCC1)C1CCN(S(=O)(=O)c2cccc(C(F)(F)F)c2)CC1 | inconclusive [inhibitor, full curve, poor fit] |
| CCCc1[nH]nc2c1C(c1cc(OC)ccc1F)C(C#N)=C(N)O2 (centres undefined) | inactive |
| O=C(CSc1ncnc2c1oc1ccccc12)Nc1ccccc1C(F)(F)F | inconclusive [inhibitor, partial curve] |
| CC(C)NC(=O)c1ccccc1NC(=O)/C=C/c1cccc([N+](=O)[O-])c1 | inconclusive [inhibitor, single point] |

— PubChem BioAssay AID485294 (National Center for Advancing Translational Sciences (NCATS), 2010)
